Data from PubChem BioAssay AID248 (DTP/NCI, 2004).
Toxic doses and inconclusive results are not listed. For part of its entries the source gives two or more results. The other results are left out here. An entry can have further records. The records of an entry repeat one measurement across runs, samples, wells, individuals or studies. Brackets tell where a record comes from. A, B and so on number the origins entry by entry.

Tested on: L1210 leukemia ip in BDF1 mice, survival T/C
Assay: NCI In Vivo Anticancer Drug Screen. Data for tumor model L1210 Leukemia (intraperitoneal) in B6D2F1 (BDF1) mice
Conditions: endpoint: mean survival time, higher = longer survival

COC1C(CO)OC(n2cnc3c(=S)nc(N)[nH]c32)C1O (centres undefined)
T/C (dose: 100.0 mg/kg/injection, schedule: Q01DX005 (ip), vehicle: saline): 117 % of control and 157 % of control

O=C(Nc1ccc(C2=NCCN2)cc1)c1ccc(C(=O)Nc2ccc(C3=NCCN3)cc2)c(Cl)c1
T/C (dose: 4.0 mg/kg/injection, schedule: Q01DX Z (ip), vehicle: saline): 117 % of control and 152 % of control | T/C (dose: 8.0 mg/kg/injection, schedule: Q01DX010 (ip), vehicle: other): 118 % of control, 121 % of control, 188 % of control | T/C (dose: 24.0 mg/kg/injection, schedule: Q03DX Z (ip), vehicle: saline): 123 % of control and 158 % of control | T/C (dose: 32.0 mg/kg/injection, schedule: Q01DX Z (ip), vehicle: saline): 114 % of control, 157 % of control, 193 % of control

CC(C)=CCC1=C(O)c2ccccc2C(=O)C1=O
T/C (dose: 25.0 mg/kg/injection, schedule: Q01DX Z (ip), vehicle: water): 94 % of control, 150 % of control, 151 % of control

CS(=O)(=O)OCCC(=O)NCNC(=O)CCOS(C)(=O)=O
T/C (dose: 42.0 mg/kg/injection, schedule: Q01DX Z (ip), vehicle: carboxymethylcellulose (CMC)): 109 % of control and 151 % of control

COc1cc2c(c(OC)c1OC)-c1cc(I)c(O)cc1[C@@H](NC(C)=O)CC2
T/C (dose: 400.0 mg/kg/injection, schedule: Q01DX001 (ip), vehicle: carboxymethylcellulose (CMC)): 119 % of control and 150 % of control

O=NN(CCCl)C(=O)NC1CCC(C(=O)O)CC1 (centres undefined)
T/C (dose: 62.0 mg/kg/injection, schedule: Q01DX001 (ip), vehicle: saline with Tween-80): 182 % of control [sample A] and 107 % of control [sample B]

CCCCCC(C)(C)O
T/C (dose: 400.0 mg/kg/injection, schedule: Q01DX001 (ip), vehicle: saline): 108 % of control and 151 % of control

CC(C)CCCC(C)C1CCC2C3CCC4CN(N=O)CCC4C3CCC12C (centres undefined)
T/C (dose: 400.0 mg/kg/injection, schedule: Q01DX001 (sc), vehicle: steriod suspending solution): 98 % of control and 168 % of control

COC(=O)N1c2ccccc2C=CC1C#N (centres undefined)
T/C (dose: 200.0 mg/kg/injection, schedule: Q04DX003 (ip), vehicle: saline with Tween-80): 105 % of control and 155 % of control

O=C(NP(=O)(N1CC1)N1CC1)OCc1ccccc1
T/C (dose: 24.0 mg/kg/injection, schedule: Q01DX Z (ip), vehicle: saline): 122 % of control, 158 % of control, 168 % of control

CC[C@@]1(O)C(=O)OCc2c1cc1n(c2=O)Cc2cc3ccccc3nc2-1
T/C (dose: 2.0 mg/kg/injection, schedule: Q01DX Z (sc), vehicle: saline): 96 % of control and 152 % of control
